Experimental data: a compilation of properties of binary mixtures (doi:10.1016/j.molliq.2010.11.001)
Some of these densities may be calculated back from excess volumes.

Test: xn = mol fraction of the nth substance listed
Details: 101 kPa

CO + CCCCCC[n+]1ccn(CCC#N)c1.[Br-]
x1 = 1
Details | mass density [kg/m3]
293.15 K | 791.1
298.15 K | 786.5
303.15 K | 781.8
308.15 K | 777
313.15 K | 772.3
318.15 K | 769.6
323.15 K | 765.1

CCCCCC[n+]1ccn(CCC#N)c1.[Br-] + CO
mass density [kg/m3]
Details | x2 = 0 | x2 = 0.1822 | x2 = 0.2348 | x2 = 0.3192 | x2 = 0.4059 | x2 = 0.5169 | x2 = 0.592 | x2 = 0.7084 | x2 = 0.8019 | x2 = 0.9011
293.15 K | 1234.9 | 1224.1 | 1220.3 | 1213.5 | – | – | 1180.5 | 1153.9 | 1112.3 | –
298.15 K | 1230.5 | 1219.9 | 1216 | 1209.3 | 1201.1 | 1188.4 | 1176.4 | 1149.6 | 1107.6 | 989.2
303.15 K | 1227.2 | 1216.8 | 1212.9 | 1206.2 | 1198.1 | 1185.1 | – | 1145.8 | – | 985.1
308.15 K | 1223.1 | 1213 | 1209.1 | 1202.4 | 1194.2 | – | – | 1141.4 | 1099.3 | 981.1
313.15 K | 1220.4 | 1210.5 | 1206.6 | 1199.9 | 1191.6 | 1178.1 | 1165.9 | 1138 | 1095 | –
318.15 K | 1215.1 | 1205.6 | 1201.8 | 1195.2 | 1187.1 | 1173.5 | – | 1134 | 1090.5 | 973.3
323.15 K | 1211.4 | 1202.2 | 1198.3 | 1191.8 | 1183.7 | 1170 | 1158 | 1130 | 1086.5 | 968.9
